The values that follow come from patent US10683309B2, “Xanthine derivatives, their use as a medicament, and pharmaceutical preparations comprising the same” (MAX-DELBRÜCK-CENTRUM FÜR MOLEKULARE MEDIZIN, priority 2016, dated 2020).

This assay deals with recombinant human TPH2 (Swiss-Prot: Q8IWU9) (Homo sapiens (Human), UniProt Q8IWU9). The assay can be described thus: In vitro enzyme activity assay, fluorescence-based, TPH2 inhibition. The following applies: read-out: IC50 TPH2 (μM) mean; recombinant human TPH2, 40 μM tryptophan, pH 7.0, mean of sample triplicates.
Chain of UniProt Q8IWU9 (Q8IWU9 whole entry): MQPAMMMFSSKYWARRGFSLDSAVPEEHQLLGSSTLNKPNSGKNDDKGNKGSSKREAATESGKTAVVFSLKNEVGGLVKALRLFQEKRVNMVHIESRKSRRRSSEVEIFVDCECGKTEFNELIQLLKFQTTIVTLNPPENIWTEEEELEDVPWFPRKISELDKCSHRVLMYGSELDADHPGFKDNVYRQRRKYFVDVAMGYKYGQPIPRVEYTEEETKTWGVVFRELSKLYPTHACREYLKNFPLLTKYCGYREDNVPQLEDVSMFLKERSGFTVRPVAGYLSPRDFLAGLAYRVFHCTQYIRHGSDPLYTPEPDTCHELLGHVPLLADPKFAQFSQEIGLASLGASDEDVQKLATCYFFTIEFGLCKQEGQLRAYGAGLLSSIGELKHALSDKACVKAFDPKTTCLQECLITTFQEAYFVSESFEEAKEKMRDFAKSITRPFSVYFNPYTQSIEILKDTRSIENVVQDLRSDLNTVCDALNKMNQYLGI
For `CCn1c(=O)[nH]c(=O)c2c1nc(Cc1cn3c(n1)CCCC3)n2Cc1ccc(NC(C)=O)cc1` [Ex. 35, N-(4-((3-ethyl-2,6-dioxo-8-((5,6,7,8-tetrahydroimidazo[1,2-a]pyridin-2-yl)methyl)-1,2,3,6-tetrahydro-7H-purin-7-yl)methyl)phenyl)acetamide], the IC50 was 0.036 µM.
As to `CCn1c(=O)[nH]c(=O)c2c1nc(Cc1cn3c(n1)CCCC3)n2Cc1ccc(N2CCCC2=O)cc1` [Ex. 36, 3-ethyl-7-(4-(2-oxopyrrolidin-1-yl)benzyl)-8-((5,6,7,8-tetrahydroimidazo[1,2-a]pyridin-2-yl)methyl)-3,7-dihydro-1H-purine-2,6-dione], the IC50 stood at 0.03 µM.
Under `CCn1c(=O)[nH]c(=O)c2c1nc(Cc1cn3c(n1)CCCC3)n2Cc1ccc(N2CC(F)(F)C2)cc1` [Ex. 37, 7-(4-(3,3-difluoroazetidin-1-yl)benzyl)-3-ethyl-8-((5,6,7,8-tetrahydroimidazo[1,2-a]pyridin-2-yl)methyl)-3,7-dihydro-1H-purine-2,6-dione] stands 0.032 µM; under `CCn1c(=O)[nH]c(=O)c2c1nc(Cc1cn3c(n1)CCCC3)n2Cc1ccc(N2CC(OC)C2)cc1` [Ex. 38, 3-ethyl-7-(4-(3-methoxyazetidin-1-yl)benzyl)-8-((5,6,7,8-tetrahydroimidazo[1,2-a]pyridin-2-yl)methyl)-3,7-dihydro-1H-purine-2,6-dione], 0.035 µM; under `CCn1c(=O)[nH]c(=O)c2c1nc(Cc1cn3c(n1)CCCC3)n2Cc1ccc(-c2noc(C)n2)cc1` [Ex. 39, 3-ethyl-7-(4-(5-methyl-1,2,4-oxadiazol-3-yl)benzyl)-8-((5,6,7,8-tetrahydroimidazo[1,2-a]pyridin-2-yl)methyl)-3,7-dihydro-1H-purine-26-dione], 0.026 µM.

Broadly, the IC50 is the concentration at which inhibition is half-maximal.
